US20080075796A1, “Compositions and Methods for Controlling Insects” (TyraTech, Inc., priority 2003, published 2008)

Biological target: T1, tyramine receptor (TyrR) (Drosophila melanogaster, UniProt P22270)
T1 sequence (P22270 27-601): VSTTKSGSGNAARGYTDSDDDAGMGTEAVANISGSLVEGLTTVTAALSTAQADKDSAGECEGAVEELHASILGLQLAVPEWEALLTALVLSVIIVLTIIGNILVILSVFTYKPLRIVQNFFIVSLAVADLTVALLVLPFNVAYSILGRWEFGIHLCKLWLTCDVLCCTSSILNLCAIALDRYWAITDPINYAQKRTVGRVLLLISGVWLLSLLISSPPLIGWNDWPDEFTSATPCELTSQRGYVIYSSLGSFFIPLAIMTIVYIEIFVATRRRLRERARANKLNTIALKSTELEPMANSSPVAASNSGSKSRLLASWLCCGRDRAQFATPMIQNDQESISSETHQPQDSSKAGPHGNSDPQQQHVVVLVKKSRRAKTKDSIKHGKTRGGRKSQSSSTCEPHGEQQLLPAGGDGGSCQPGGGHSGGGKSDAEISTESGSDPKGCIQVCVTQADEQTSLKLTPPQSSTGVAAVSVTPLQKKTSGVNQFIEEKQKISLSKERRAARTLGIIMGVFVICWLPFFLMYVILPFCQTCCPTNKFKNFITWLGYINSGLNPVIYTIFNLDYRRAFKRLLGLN
Details: displacement of about 2 nM ^3H-tyramine

An EC50 (EC50 (concentration at which binding is inhibited by 50%)) of 7.46 µM and a Ki (Ki) of 2.87 µM were found for NCC(O)c1ccc(O)cc1 (centres unmarked) [Octopamine (OA), Octopamine] in this work.
